Data: PubChem BioAssay AID2313 (Broad Institute, 2010)
About 460 (2.1%) of roughly 22,000 compounds were called active. The shares of active, inactive and inconclusive entries below differ from those in the screen.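 Rule for the calls: active = mean inhibition across valid replicates above about 65% (limit read from the data); inconclusive = mean under the limit, yet half or more replicates past it; inactive = the rest.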

Experiment: Shh-driven Gli reporter inhibition – luminescence, Shh-LIGHT2 cells, Gli-luciferase, primary screen (AID 2313);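 note: pathway switched on by Shh-conditioned medium diluted 1 in 25 in low serum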
Details: 30 h, hits give high values

Which inhibition does the source give for `C[C@@H]1CN([C@@H](C)CO)C(=O)c2cc(NC(=O)NC3CCCCC3)ccc2O[C@@H]1CN(C)C(=O)Nc1ccc(F)cc1` here?
The inhibition was inactive: -15.6%.

Which inhibition does the source give for `Cc1ccc(S(=O)(=O)N(C)C[C@H]2Oc3ccc(NC(=O)CCN4CCOCC4)cc3CC(=O)N([C@H](C)CO)C[C@H]2C)cc1` here?
The inhibition was inconclusive: 25.9%.

With `C[C@@H]1CCCCO[C@@H](CN(C)S(=O)(=O)c2ccc(Cl)cc2)[C@@H](C)CN([C@H](C)CO)C(=O)c2cc(NC(=O)NC3CCCCC3)ccc2O1` as the compound, how does the inhibition read?
Its inhibition is inconclusive: 42.9%.

With `OCC1CCCN1CC1CC1` (stereo unspecified) as the compound, how does the inhibition read?
The inhibition was inactive: -34.3%.

For `Cc1ccc(S(=O)(=O)N(C)C[C@@H]2Oc3ccc(NC(=O)Cc4cn(C)c5ccccc45)cc3CC(=O)N([C@H](C)CO)C[C@@H]2C)cc1`, which inhibition is on record?
Its inhibition is inconclusive: 54.4%.

With `Cc1noc(C)c1S(=O)(=O)Nc1ccc2c(c1)CC(=O)N([C@@H](C)CO)C[C@H](C)[C@H](CN(C)CC1CCCCC1)O2` as the compound, how does the inhibition read?
Its inhibition is inconclusive: 38.7%.

Which inhibition does the source give for `C[C@H]1CN([C@@H](C)CO)C(=O)Cc2cc(NC(=O)CCC(F)(F)F)ccc2O[C@@H]1CN(C)CC1CCCCC1` here?
The inhibition was inconclusive: 56.6%.

Which inhibition does the source give for `COc1ccc(NC(=O)Nc2ccc3c(c2)CC(=O)N([C@@H](C)CO)C[C@H](C)[C@@H](CN(C)C(=O)NC2CCCCC2)O3)cc1` here?
Its inhibition is inconclusive: 35.6%.

Which inhibition does the source give for `Cc1noc(C)c1S(=O)(=O)Nc1ccc2c(c1)CC(=O)N([C@@H](C)CO)C[C@H](C)[C@@H](CN(C)C(=O)Nc1ccc(C(F)(F)F)cc1)O2` here?
The inhibition was inconclusive: 23.8%.

Which inhibition does the source give for `C[C@@H]1CN([C@H](C)CO)C(=O)Cc2cc(NC(=O)NC3CCCCC3)ccc2O[C@H]1CN(C)CC1CC1` here?
Its inhibition is inconclusive: 8.49%.

For `C[C@H](CO)N1C[C@H](C)[C@H](CN(C)C(=O)Nc2ccc(F)cc2)Oc2ccc(NC(=O)C3CCCCC3)cc2CC1=O`, which inhibition is on record?
Its inhibition is inconclusive: 2.38%.

For `COc1ccc(S(=O)(=O)Nc2cccc3c2O[C@H](CN(C)C(=O)Nc2cccc4ccccc24)[C@@H](C)CN([C@H](C)CO)C3=O)cc1`, which inhibition is on record?
Its inhibition is inconclusive: 37%.

Which inhibition does the source give for `COc1ccc(CN(C)C[C@@H]2Oc3c(NC(=O)c4ccc(-c5nccs5)cc4)cccc3C(=O)N([C@H](C)CO)C[C@@H]2C)cc1` here?
Its inhibition is inconclusive: 58.2%.

With `C[C@H](CO)N1C[C@H](C)[C@@H](CN(C)C(=O)Nc2ccc(F)cc2)Oc2c(NC(=O)Nc3ccc(C(F)(F)F)cc3)cccc2C1=O` as the compound, how does the inhibition read?
Its inhibition is inactive: 5.59%.

For `CC[C@]1(O)C[C@H]2CN(CCc3c([nH]c4ccccc34)[C@@](C(=O)OC)(c3cc4c(cc3OC)N(C=O)[C@H]3[C@@](O)(C(=O)OC)[C@H](OC(C)=O)[C@@]5(CC)C=CCN6CC[C@]43[C@@H]65)C2)C1`, which inhibition is on record?
Its inhibition is active: 70.8%.

With `O=c1cc(-c2ccc(O)c(O)c2)oc2cc(O)cc(O)c12` as the compound, how does the inhibition read?
The inhibition was inconclusive: 47.5%.

For `C[C@H](CO)N1C[C@H](C)[C@H](CN(C)Cc2ccc3c(c2)OCO3)Oc2ccc(NC(=O)C3CC3)cc2C1=O`, which inhibition is on record?
Its inhibition is inconclusive: 44.1%.

For `COc1ccc(/C=C/C(=O)CC(=O)/C=C/c2cccc(O)c2OC)cc1O`, which inhibition is on record?
Its inhibition is active: 69.5%.

For `CN1CCN(C2=Cc3ccccc3Oc3ccc(Cl)cc32)CC1`, which inhibition is on record?
The inhibition was inconclusive: 60.2%.

With `C[C@@H]1CN([C@H](C)CO)C(=O)Cc2cc(NC(=O)Nc3ccc(C(F)(F)F)cc3)ccc2O[C@H]1CN(C)S(=O)(=O)c1cn(C)cn1` as the compound, how does the inhibition read?
The inhibition was inconclusive: -1.12%.

With `C[C@@H]1CCCCO[C@@H](CN(C)C(=O)Nc2ccc(C(F)(F)F)cc2)[C@@H](C)CN([C@H](C)CO)C(=O)c2cc(NS(=O)(=O)c3ccc(F)cc3)ccc2O1` as the compound, how does the inhibition read?
Its inhibition is active: 98.1%.

With `O=C(O)c1cc(F)cc(C(F)(F)F)c1` as the compound, how does the inhibition read?
The inhibition was inactive: -1.05%.

For `CC(C)NC(=O)N(C)C[C@@H]1Oc2ccc(NC(=O)Cn3cnnn3)cc2C(=O)N([C@@H](C)CO)C[C@@H]1C`, which inhibition is on record?
Its inhibition is inactive: 2.84%.

Which inhibition does the source give for `C[C@@H]1CN([C@H](C)CO)C(=O)Cc2cc(NC(=O)c3ccncc3)ccc2O[C@@H]1CN(C)S(=O)(=O)c1cccs1` here?
Its inhibition is inconclusive: 55.2%.

With `CC1(C)CC(=O)C=C(Sc2nc3cc(Cl)ccc3s2)C1` as the compound, how does the inhibition read?
The inhibition was inconclusive: 61.6%.

Which inhibition does the source give for `COc1ccc(S(=O)(=O)N(C)C[C@@H]2Oc3ccc(NC(=O)Nc4ccc(F)cc4)cc3CC(=O)N([C@H](C)CO)C[C@H]2C)cc1` here?
The inhibition was inactive: -6%.

With `COc1ccc(NC(=O)N(C)C[C@H]2Oc3ccc(NC(=O)NC4CCCCC4)cc3CC(=O)N([C@@H](C)CO)C[C@@H]2C)cc1` as the compound, how does the inhibition read?
The inhibition was inconclusive: 24.3%.

Which inhibition does the source give for `C[C@@H]1O[C@@H](O[C@@H]2[C@@H](O)[C@H](OC(=O)[C@]34CCC(C)(C)CC3C3=CCC5[C@@]6(C)CC[C@H](OC7OC(CO)C(OC8OCC(O)C(O)C8O)C(O)C7O)C(C)(C)C6CC[C@@]5(C)[C@]3(C)CC4O)O[C@H]2CO)[C@H](O)[C@H](O)[C@H]1O[C@H]1OC[C@](O)(CO)[C@H]1O` (stereo partly specified) here?
The inhibition was inconclusive: 47.3%.

With `CC1(C)CC[C@]2(C(=O)O)CC[C@]3(C)C(=CCC4[C@@]5(C)CC[C@H](O[C@@H]6O[C@H](CO)[C@@H](O)[C@H](O)[C@H]6O)[C@@](C)(CO)C5CC[C@]43C)[C@@H]2C1` (stereo partly specified) as the compound, how does the inhibition read?
Its inhibition is active: 88.5%.

With `C=C1C(=O)O[C@H]2[C@H]1[C@@H](OC(=O)C(C)(O)C(C)Cl)C(OC(C)=O)/C(C(=O)OC)=C\CC[C@@]1(C)O[C@H]21` (stereo partly specified) as the compound, how does the inhibition read?
The inhibition was active: 73%.

Which inhibition does the source give for `C[C@@H]1CCCCO[C@H](CN(C)C(=O)Nc2cccc3ccccc23)[C@@H](C)CN([C@H](C)CO)C(=O)c2cc(NS(=O)(=O)c3cccs3)ccc2O1` here?
Its inhibition is inconclusive: 35.4%.

With `COC(=O)c1c(-c2cc(OC)c(OC)c(OC)c2)c2ccnc(OCc3ncccn3)c2c(=O)n1Cc1ccnc(C)c1` as the compound, how does the inhibition read?
The inhibition was inactive: -45.2%.

For `C[C@@H]1CN([C@H](C)CO)C(=O)c2cccc(NS(=O)(=O)c3ccc(F)cc3)c2O[C@@H]1CN(C)CC1CCCCC1`, which inhibition is on record?
Its inhibition is inconclusive: 9.48%.

With `C[C@H](CO)N1C[C@H](C)[C@H](CN(C)Cc2ccc(-c3ccccc3)cc2)Oc2ccc(NC(=O)NC3CCCCC3)cc2CC1=O` as the compound, how does the inhibition read?
The inhibition was inactive: -14.5%.

For `CCOC(=O)C1=C[C@]2(CC)CCCN3CCc4c(n1c1ccccc41)[C@@H]32`, which inhibition is on record?
The inhibition was inconclusive: 50.7%.

Which inhibition does the source give for `c1ccn2cc(C34CC5CC(CC(C5)C3)C4)nc2c1` here?
Its inhibition is inconclusive: 51.7%.

With `C[C@]12CCC3c4ccc(O)cc4CCC3C1C[C@@H](O)[C@@H]2O` (stereo partly specified) as the compound, how does the inhibition read?
Its inhibition is inconclusive: 60.1%.

With `C[C@@H]1CCCCO[C@@H](CN(C)S(=O)(=O)c2ccc(Cl)cc2)[C@@H](C)CN([C@H](C)CO)C(=O)c2cc(NC(=O)Nc3ccccc3)ccc2O1` as the compound, how does the inhibition read?
The inhibition was inconclusive: 27.4%.

For `Cc1noc(C)c1NC(=O)N(C)C[C@H]1Oc2ccc(NC(=O)Cn3cnnn3)cc2CC(=O)N([C@H](C)CO)C[C@H]1C`, which inhibition is on record?
Its inhibition is inconclusive: 18.3%.

With `COc1ccc(NC(=O)N(C)C[C@H]2OCCCC[C@@H](C)Oc3ccc(NC(=O)Nc4ccc(C(F)(F)F)cc4)cc3C(=O)N([C@H](C)CO)C[C@@H]2C)cc1` as the compound, how does the inhibition read?
Its inhibition is inconclusive: 52.4%.

Which inhibition does the source give for `CCN1/C(=C/C2=CC(=O)CC(C)(C)C2)Sc2ccccc21` here?
The inhibition was active: 81.6%.

For `COc1ccc(S(=O)(=O)N(C)C[C@@H]2Oc3c(NC(=O)C4CCCCC4)cccc3C(=O)N([C@@H](C)CO)C[C@@H]2C)cc1`, which inhibition is on record?
Its inhibition is inactive: 56.2%.

For `CC(=O)[C@H]1CC[C@H]2[C@@H]3C[C@H](C)C4=CC(=O)CC[C@]4(C)[C@H]3[C@@H](O)C[C@]12C`, which inhibition is on record?
Its inhibition is inconclusive: 57.6%.

Which inhibition does the source give for `C[C@H]1CN([C@@H](C)CO)C(=O)c2cc(NC(=O)Nc3ccc4c(c3)OCO4)ccc2O[C@H]1CN(C)S(=O)(=O)c1ccc(Cl)cc1` here?
The inhibition was inconclusive: 55.5%.

For `CC(C)NC(=O)Nc1cccc2c1O[C@H](CN(C)S(=O)(=O)c1ccc(F)cc1)[C@@H](C)CN([C@H](C)CO)C2=O`, which inhibition is on record?
The inhibition was inactive: -14%.

For `C[C@H]1CN([C@@H](C)CO)C(=O)Cc2cc(NC(=O)Nc3ccc(C(F)(F)F)cc3)ccc2O[C@H]1CN(C)CC1CCCCC1`, which inhibition is on record?
Its inhibition is inconclusive: 34.1%.

For `C[C@H]1CN([C@@H](C)CO)C(=O)c2cccc(NS(=O)(=O)c3ccc(F)cc3)c2O[C@H]1CN(C)S(=O)(=O)c1ccc(F)cc1`, which inhibition is on record?
Its inhibition is inactive: 27.1%.

For `Cc1noc(C)c1NC(=O)Nc1ccc2c(c1)CC(=O)N([C@H](C)CO)C[C@@H](C)[C@H](CN(C)Cc1ccccc1)O2`, which inhibition is on record?
Its inhibition is inconclusive: 36.2%.

For `O=C(O)Cc1cncc(Br)c1`, which inhibition is on record?
The inhibition was inactive: -0.708%.

With `C[C@H](CO)N1C[C@H](C)[C@@H](CN(C)C)Oc2c(NC(=O)C3CC3)cccc2C1=O` as the compound, how does the inhibition read?
Its inhibition is inconclusive: 48.3%.

For `COc1ccc(S(=O)(=O)Nc2ccc3c(c2)CC(=O)N([C@@H](C)CO)C[C@@H](C)[C@@H](CN(C)S(=O)(=O)c2ccc(OC)cc2)O3)cc1`, which inhibition is on record?
The inhibition was inconclusive: 9.43%.

With `C[C@@H]1CCCCO[C@@H](CN(C)S(=O)(=O)c2ccc(Cl)cc2)[C@@H](C)CN([C@H](C)CO)C(=O)c2cc(NS(=O)(=O)c3ccc(Cl)cc3)ccc2O1` as the compound, how does the inhibition read?
Its inhibition is active: 71%.

For `CC(C)NC(=O)Nc1ccc2c(c1)C(=O)N([C@H](C)CO)C[C@H](C)[C@H](CN(C)Cc1ccccc1)OCCCC[C@@H](C)O2`, which inhibition is on record?
Its inhibition is inconclusive: 14.7%.

Which inhibition does the source give for `Cc1cc(C(=O)Nc2cccc3c2O[C@H](CN(C)Cc2ccc4c(c2)OCO4)[C@@H](C)CN([C@H](C)CO)C3=O)n(C)n1` here?
The inhibition was inconclusive: 59.8%.

For `COc1ccc(NC(=O)Nc2cccc3c2O[C@H](CN(C)C(=O)NC2CCCCC2)[C@H](C)CN([C@@H](C)CO)C3=O)cc1`, which inhibition is on record?
Its inhibition is inconclusive: 37.9%.

Which inhibition does the source give for `O=C(c1ccccc1)c1cnn(-c2ccc(Cl)cc2)n1` here?
The inhibition was active: 79.3%.
